About 12,000 (3.5%) of roughly 340,000 compounds were called active. Inconclusive means that the source gave no clear call. Such entries were picked first, then a sample of the others. The call rests on the fitted dose curve; in most records, active means well fitted inhibition curve with a large enough effect; inconclusive means small, poorly fitted or top-dose-only effect, or another doubt; inactive means no such curve, though single readings can be large or run the other way. Potencies of inconclusive entries are left out as doubtful fits.
Assay: qHTS Assay for Inhibitors of Hepatitis C Virus (HCV)
Details: Huh7.5.1 HCVcc-Cre (HCVcc is cell-culture hepatitis C virus) infection, luciferase reporter, 44 h; series mostly up to 41.8 µM
Outline: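 Luciferase read-out (15 sec integration) after a 15 min room-temperature substrate step quantifies HCVcc-Cre infection. Cells, 1,000 per well, had compound added 4 h post-plating, then virus at ~0.5 moi, and were cultured 44 h.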
Potency means the concentration at half of the fitted maximal effect; tags describe the fitted curve by direction and shape.

Row | Structure (SMILES) | Potency
1 | COC(=O)c1c(-c2cccs2)csc1NC(=O)CN1CCOCC1 | inconclusive [inhibitor, single point]
2 | CCCCCCc1cc2cc(/C(N)=N/NC(=O)c3ccncc3)c(=O)oc2cc1O | inconclusive [inhibitor, full curve]
3 | Cc1nn(C)cc1/C=C/C(=O)c1ccccc1 | inconclusive [inhibitor, partial curve]
4 | CCOc1ccc(C2=C(C=C(C#N)C#N)C(c3ccccc3)c3ccccc3O2)cc1 (centres undefined) | inconclusive [inhibitor, single point]
5 | CCOC(=O)c1c(C)[nH]c(C(=O)OC(C)C(=O)Nc2ccccc2OC)c1C (centres undefined) | inconclusive [inhibitor, partial curve, poor fit]
6 | CCOC(=O)COc1ccc(S(=O)(=O)c2ccc(OCC(=O)OCC)cc2)cc1 | inconclusive [inhibitor, partial curve, poor fit]
7 | CCCc1cc(=O)oc2c(C)c(OCC(=O)NCCCn3ccnc3)ccc12 | inactive
8 | CC(=O)Nc1ccc(NC(=O)c2ccc(S(=O)(=O)N(C)c3ccccc3)cc2)cc1 | inconclusive [inhibitor, full curve, poor fit]
9 | CCOC(=O)N1CCN(c2nc(-c3ccco3)cc(C(F)(F)F)n2)CC1 | inconclusive [inhibitor, single point]
10 | O=C(C1CCN(Cc2ccc(Cl)cc2)CC1)N1CCN(C(c2ccccc2)c2ccccc2)CC1 | inconclusive [inhibitor, full curve]
11 | CCCOc1ccc(C(=O)N2CCCc3ccccc32)cc1 | inconclusive [inhibitor, partial curve, poor fit]
12 | O=C(N/N=C/c1cc(Cl)ccc1O)C(=O)Nc1ccccc1OC(F)(F)C(F)F | inconclusive [inhibitor, single point]
13 | COc1ccc(CCNc2cc(C)nc3c(-c4ccccc4)c(C)nn23)cc1OC | active: 11.2 µM
14 | Cc1cc(C(=O)CSc2n[nH]c(N)n2)c(C)n1-c1ccc2c(c1)OCO2 | inconclusive [inhibitor, partial curve, poor fit]
15 | COc1cccc(C(=O)N2N=C(c3ccccn3)CC2(O)C(F)(F)F)c1 (centres undefined) | inconclusive [inhibitor, single point]
16 | OC(CN1CCN(Cc2ccc3c(c2)OCO3)CC1)c1c[nH]c2ccccc12 (centres undefined) | inconclusive [inhibitor, partial curve]
17 | CC1=CC(=C(C#N)c2nc3ccccc3s2)C=C(C)N1CC1CCCO1 (centres undefined) | active: 11.2 µM
18 | Cc1cccc(C)c1NC(=O)c1nc(S(=O)(=O)Cc2ccccc2)ncc1Cl | inconclusive [inhibitor, single point]
19 | Cc1ccc(-n2nc(-c3ccc(N)cc3)cc2N)cc1 | inactive
20 | COc1ccccc1N1CCN(c2ccc3cc(S(=O)(=O)N4CCCCC4)ccc3n2)CC1 | inconclusive [inhibitor, single point]

Row | Structure (SMILES) | Potency
21 | O=C(CSc1nnc(C2CC2)n1C1CC1)c1ccc(F)c(F)c1 | inconclusive [inhibitor, single point]
22 | CC(C)OC(=O)c1cc2c(ccn2C)n1CC(=O)N(Cc1ccccc1)c1ccccc1 | inconclusive [inhibitor, single point]
23 | CCOC(=O)c1c(C)[nH]c(C2=NNC(=Nc3ccc(OCC)cc3)SC2)c1C | inconclusive [inhibitor, single point]
24 | Cc1cccc(C)c1OCC(=O)Nc1oc(-c2ccccc2)c(-c2ccccc2)c1C#N | inconclusive [inhibitor, full curve, poor fit]
25 | COc1ccc(S(=O)(=O)N(CC(=O)Nc2cc(C)on2)Cc2ccccc2)cc1 | inconclusive [inhibitor, single point]
26 | c1ccc(-c2oc3ncnc(NCCCn4ccnc4)c3c2-c2ccccc2)cc1 | active: 11.2 µM
27 | C[C@@]12C(=O)Nc3cc(Cl)ccc3C(=O)N1[C@H]1c3cc(Cl)ccc3OC[C@@H]1[C@@H]2c1ccccc1 | inconclusive [inhibitor, partial curve]
28 | COc1cc(OC)c(C2=NOC(C(=O)NCc3cccs3)C2)cc1Cl (centres undefined) | inconclusive [inhibitor, single point]
29 | COc1ccccc1/C=C1\SC(=S)N(CCC(=O)NNC(=O)c2ccccc2OC)C1=O | inconclusive [inhibitor, partial curve, poor fit]
30 | O=C(CCCn1c(SCC(=O)Nc2ccccc2Cl)nc2ccccc2c1=O)NCC1CCCO1 (centres undefined) | inconclusive [inhibitor, partial curve]
31 | O=C(O)c1cccc(-c2nnn(Cc3ccccc3Cl)n2)c1 | inactive
32 | CCN1/C(=C2/SC(=S)N(NC(C)=O)C2=O)Sc2ccc(OC)cc21 | inconclusive [inhibitor, single point]
33 | C/C(=N\NC(=S)NCCc1ccccc1)c1ccc(Cl)cc1Cl | inactive
34 | Cc1ccc(CN(C(=O)c2cc(=O)c3cc(Cl)c(C)cc3o2)C2CCS(=O)(=O)C2)cc1 (centres undefined) | inactive
35 | COc1cccc(CNC(=O)CS(=O)(=O)Cc2nc(-c3ccc(C)cc3)oc2C)c1OC | inconclusive [inhibitor, single point]
36 | CCCCc1nc2ccccc2c(NC(=O)CNC(C)(C)C)c1CCC | inconclusive [inhibitor, single point]
37 | CCOC(=O)CSc1nc2sc3c(c2c(=O)n1-c1ccc(C)cc1)CCN(C)C3 | inconclusive [inhibitor, partial curve]
38 | O=C(CCCN1C(=O)/C(=C\c2ccccc2)SC1=S)Nc1ccc(O)cc1C(=O)O | inconclusive [inhibitor, single point]
39 | CC1(OC(=O)CCc2ccccc2)C(=O)C=C2C=C(c3ccc(C#N)cc3)N(C3CCCCC3)C=C2C1=O (centres undefined) | inconclusive [inhibitor, single point]

— PubChem BioAssay AID651820 (National Center for Advancing Translational Sciences (NCATS), 2012)
